{"source": "paper PMC7005036", "binders": {"B1": {"name": "MID1(77–343aa), MITOCHONDRION-MEDIATED GROWTH DEFECT 1 without the mitochondrial targeting signal, yeast two-hybrid fusion (domain or fragment, UniProt Q9LNC0 77-343)", "chain": "HRIRVIDEILQSFVPVRPRSLPKIVYSSLLTYCLQSSDPLPLSFAILQRTLRSGCLPNPQTHLLLSDAWLERRRGSQSVADIINEMKLIGYSPDTGTCNYLVSSLCAVDKLDEAIKVVEEMSAAGCIPDVESYGAVINSLCLARKTTDVVKIVKEMVSKAGISPRKGMLTKVAAALRANREIWKAIEMIEFVESRDYPVEFESYEVVVEGCLEVREYILAGKVVMRMTDRGFIPYIKVRQKVVERLINIGEWKLACTVRQRVSELRS"}, "B2": {"name": "MID1(77–170aa), yeast two-hybrid fusion (domain or fragment, UniProt Q9LNC0 77-170)", "chain": "HRIRVIDEILQSFVPVRPRSLPKIVYSSLLTYCLQSSDPLPLSFAILQRTLRSGCLPNPQTHLLLSDAWLERRRGSQSVADIINEMKLIGYSPD"}, "B3": {"name": "MID1(77–205aa), yeast two-hybrid fusion (domain or fragment, UniProt Q9LNC0 77-205)", "chain": "HRIRVIDEILQSFVPVRPRSLPKIVYSSLLTYCLQSSDPLPLSFAILQRTLRSGCLPNPQTHLLLSDAWLERRRGSQSVADIINEMKLIGYSPDTGTCNYLVSSLCAVDKLDEAIKVVEEMSAAGCIPD"}, "B4": {"name": "MID1(77–240aa), yeast two-hybrid fusion (domain or fragment, UniProt Q9LNC0 77-240)", "chain": "HRIRVIDEILQSFVPVRPRSLPKIVYSSLLTYCLQSSDPLPLSFAILQRTLRSGCLPNPQTHLLLSDAWLERRRGSQSVADIINEMKLIGYSPDTGTCNYLVSSLCAVDKLDEAIKVVEEMSAAGCIPDVESYGAVINSLCLARKTTDVVKIVKEMVSKAGISP"}, "B5": {"name": "MID1(77–276aa), yeast two-hybrid fusion (domain or fragment, UniProt Q9LNC0 77-276)", "chain": "HRIRVIDEILQSFVPVRPRSLPKIVYSSLLTYCLQSSDPLPLSFAILQRTLRSGCLPNPQTHLLLSDAWLERRRGSQSVADIINEMKLIGYSPDTGTCNYLVSSLCAVDKLDEAIKVVEEMSAAGCIPDVESYGAVINSLCLARKTTDVVKIVKEMVSKAGISPRKGMLTKVAAALRANREIWKAIEMIEFVESRDYPVE"}, "B6": {"name": "MID1(77–311aa), yeast two-hybrid fusion (domain or fragment, UniProt Q9LNC0 77-311)", "chain": "HRIRVIDEILQSFVPVRPRSLPKIVYSSLLTYCLQSSDPLPLSFAILQRTLRSGCLPNPQTHLLLSDAWLERRRGSQSVADIINEMKLIGYSPDTGTCNYLVSSLCAVDKLDEAIKVVEEMSAAGCIPDVESYGAVINSLCLARKTTDVVKIVKEMVSKAGISPRKGMLTKVAAALRANREIWKAIEMIEFVESRDYPVEFESYEVVVEGCLEVREYILAGKVVMRMTDRGFIPY"}, "B7": {"name": "ODB1-3×Flag, full-length O… DNA-BINDING PROTEIN 1 with C-terminal 3×Flag (protein, UniProt Q9FVV7 38-176)", "chain": "STETENDVPTSGISRPLAEILKELNKKVPDSVIRTRVEDGCSIKYIPWHIVNRIMNMHAPEWSGEVRSVTYSPDGNTVTVAYRVTLYGTDAEIFRESTGTTSVDDKGYGDAVQKAEAMAFRRACARFGLGLHLYHEDAL"}, "B8": {"name": "WTF9-NLuc (protein, UniProt Q9ZUZ6 25-387)", "chain": "VDVYMKWKRDPYFDNIEHILRSSQLKSVVSLKNCIVQEPNRCIPISAISKKTRQFDVSTKIAHFLRKFPSIFEEFVGPEYNLPWFRLTPEATELDRQERVVYQTSADDLRDRLKKLILMSKDNVLPLSIVQGMKWYLGLPDDYLQFPDMNLDSSFRFVDMEDGVKGLAVDYNGGDKVLSVLQKNAMKKRRGEVSLEEIEFPLFPSKGCRLRVKIEDWLMEFQKLPYVSPYDDYSCLDPSSDIAEKRVVGFLHELLCLFVEHSAERKKLLCLKKHFGLPQKVHKAFERHPQIFYLSMKNKTCTAILREPYRDKASVETHPVLGVRKKYIQLMKNSELILKSRRNSFGFRDEGVVDKDLDLDFEG"}}, "key": {"[1]": {"biological_target": "T1, MID1(77–135)BD, N-terminus of MID1 only (Arabidopsis thaliana) (UniProt Q9LNC0)", "T1 sequence": "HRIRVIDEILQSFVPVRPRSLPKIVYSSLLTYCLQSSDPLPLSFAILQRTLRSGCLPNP", "test": "two-hybrid; bait vector pGBKT7 (BD) and prey vector pGADT7 (AD), proteins without the N-terminal mitochondrial targeting signals; growth on SD/-Ade-His-Trp-Leu; 10 mM 3-AT added for some pairs against auto-activation"}, "[2]": {"biological_target": "MID1(77–343aa), MITOCHONDRION-MEDIATED GROWTH DEFECT 1 without the mitochondrial targeting signal, yeast two-hybrid fusion (Arabidopsis thaliana) (UniProt Q9LNC0)", "test": "two-hybrid; bait vector pGBKT7 (BD) and prey vector pGADT7 (AD), proteins without the N-terminal mitochondrial targeting signals; growth on SD/-Ade-His-Trp-Leu; 10 mM 3-AT added for some pairs against auto-activation"}, "[3]": {"biological_target": "T2, MID1(77–205aa), yeast two-hybrid fusion (Arabidopsis thaliana) (UniProt Q9LNC0)", "T2 sequence": "B3 chain", "test": "two-hybrid; bait vector pGBKT7 (BD) and prey vector pGADT7 (AD), proteins without the N-terminal mitochondrial targeting signals; growth on SD/-Ade-His-Trp-Leu; 10 mM 3-AT added for some pairs against auto-activation"}, "[4]": {"biological_target": "T3, MID1(77–311aa), yeast two-hybrid fusion (Arabidopsis thaliana) (UniProt Q9LNC0)", "T3 sequence": "B6 chain", "test": "two-hybrid; bait vector pGBKT7 (BD) and prey vector pGADT7 (AD), proteins without the N-terminal mitochondrial targeting signals; growth on SD/-Ade-His-Trp-Leu; 10 mM 3-AT added for some pairs against auto-activation"}, "[5]": {"biological_target": "T4, MID1(77–170aa), yeast two-hybrid fusion (Arabidopsis thaliana) (UniProt Q9LNC0)", "T4 sequence": "B2 chain", "test": "two-hybrid; bait vector pGBKT7 (BD) and prey vector pGADT7 (AD), proteins without the N-terminal mitochondrial targeting signals; growth on SD/-Ade-His-Trp-Leu; 10 mM 3-AT added for some pairs against auto-activation"}, "[6]": {"biological_target": "T5, MID1(77–240aa), yeast two-hybrid fusion (Arabidopsis thaliana) (UniProt Q9LNC0)", "T5 sequence": "B4 chain", "test": "two-hybrid; bait vector pGBKT7 (BD) and prey vector pGADT7 (AD), proteins without the N-terminal mitochondrial targeting signals; growth on SD/-Ade-His-Trp-Leu; 10 mM 3-AT added for some pairs against auto-activation"}, "[7]": {"biological_target": "T6, MID1(136–170aa), first PPR motif of MID1, yeast two-hybrid fusion (Arabidopsis thaliana) (UniProt Q9LNC0)", "T6 sequence": "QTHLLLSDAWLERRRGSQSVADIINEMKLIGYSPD", "test": "two-hybrid; bait vector pGBKT7 (BD) and prey vector pGADT7 (AD), proteins without the N-terminal mitochondrial targeting signals; growth on SD/-Ade-His-Trp-Leu; 10 mM 3-AT added for some pairs against auto-activation"}, "[8]": {"biological_target": "T7, MID1(77–276aa), yeast two-hybrid fusion (Arabidopsis thaliana) (UniProt Q9LNC0)", "T7 sequence": "B5 chain", "test": "two-hybrid; bait vector pGBKT7 (BD) and prey vector pGADT7 (AD), proteins without the N-terminal mitochondrial targeting signals; growth on SD/-Ade-His-Trp-Leu; 10 mM 3-AT added for some pairs against auto-activation"}, "[9]": {"biological_target": "T8, WTF9-GFP, full-length WHAT’S THIS FACTOR 9 with C-terminal GFP (Arabidopsis thaliana) (UniProt Q9ZUZ6)", "T8 sequence": "B8 chain", "test": "co-IP; GFP-tagged bait and 3×Flag-tagged prey transiently co-expressed in Arabidopsis protoplasts; GFP Trap beads overnight at 4 °C; 50 mM Tris-Cl pH 7.5, 150 mM NaCl, 1 mM EDTA, 0.5% NP40 (wash 1% NP40), 1 mM DTT; blots with anti-GFP and anti-Flag"}, "[10]": {"biological_target": "T9, CLuc-MID1 (Arabidopsis thaliana) (UniProt Q9LNC0)", "T9 sequence": "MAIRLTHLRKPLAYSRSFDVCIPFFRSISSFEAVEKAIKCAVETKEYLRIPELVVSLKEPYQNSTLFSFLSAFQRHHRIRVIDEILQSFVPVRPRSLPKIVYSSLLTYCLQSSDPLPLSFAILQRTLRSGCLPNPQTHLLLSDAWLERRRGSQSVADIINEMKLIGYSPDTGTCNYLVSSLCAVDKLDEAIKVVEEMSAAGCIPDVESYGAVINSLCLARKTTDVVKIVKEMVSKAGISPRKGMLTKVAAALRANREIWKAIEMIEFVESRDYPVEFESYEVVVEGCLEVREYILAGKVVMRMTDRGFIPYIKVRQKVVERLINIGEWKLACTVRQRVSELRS", "test": "split reporter; firefly luciferase complementation imaging; NLuc and CLuc fusions co-infiltrated into N. benthamiana leaves, 22 °C for 72 h, CCD imaging"}}, "note": "Results are given in words; binding and its absence hold for the method and conditions named. For some of these results: In cells and extracts the contact can be indirect. Tags and fused reporters may be left off the sequences shown. Some results given as binding are weak or reduced against the parent protein; the word gives no strength."}
{"binder": "B1", "values": [{"measurement": "binding", "setting": "[1]", "result": "no binding"}, {"measurement": "binding", "setting": "[2]", "result": "binds"}, {"measurement": "binding", "setting": "[3]", "result": "binds"}, {"measurement": "binding", "setting": "[4]", "result": "binds"}, {"measurement": "binding", "setting": "[5]", "result": "binds"}, {"measurement": "binding", "setting": "[6]", "result": "binds"}, {"measurement": "binding", "setting": "[7]", "result": "binds"}, {"measurement": "binding", "setting": "[8]", "result": "binds"}]}
{"binder": "B2", "values": [{"measurement": "binding", "setting": "[7]", "result": "binds"}]}
{"binder": "B3", "values": [{"measurement": "binding", "setting": "[7]", "result": "binds"}]}
{"binder": "B4", "values": [{"measurement": "binding", "setting": "[7]", "result": "binds"}]}
{"binder": "B5", "values": [{"measurement": "binding", "setting": "[7]", "result": "binds"}]}
{"binder": "B6", "values": [{"measurement": "binding", "setting": "[7]", "result": "binds"}]}
{"binder": "QTHLLLSDAWLERRRGSQSVADIINEMKLIGYSPD (domain or fragment, UniProt Q9LNC0 136-170)", "note": "[MID1(136–170aa), first PPR motif of MID1, yeast two-hybrid fusion]", "values": [{"measurement": "binding", "setting": "[7]", "result": "no binding"}]}
{"binder": "B7", "values": [{"measurement": "binding", "setting": "[9]", "result": "no binding"}]}
{"binder": "B8", "values": [{"measurement": "binding", "setting": "[10]", "result": "no binding"}]}
